# Experimental data published in the supplement of paper PMC11417369.
# The list shows a part of the results.
# Test system: PfHDP1 homeodomain (GST-tagged)
# Assay: gcPBM binding intensity (ln(normalized median fluorescence intensity)); higher = stronger DNA binding
# Procedure, shortened: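 An Agilent 4 × 180k array carrying primer-extended double-stranded 36-bp intergenic genomic probes and negative controls received GST-tagged P. falciparum DNA-binding domains expressed in E. coli, about 25 μg on average, for 1 h. The binding buffer contained 1× PBS, 1% milk, 0.2 mg/ml BSA, 0.5% salmon testes DNA and 0.03% Triton X-100. Binding intensity is the top Masliner-normalised natural-log median intensity across replicate spots of either probe orientation, read after Alexa488 anti-GST antibody staining and a 488 nm scan.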
row,Sequence,gcPBM binding intensity (ln)
1,TAAATTAAAAAACATAAACTATTGGAAACGCATTGA [CACACA_negctrl_site935],6.35
2,AAAGGTTTATCTGATACACACATAAGTGATCAGGTT [CACACA_site6233],6.03
3,CTATATATAAAATATTGTACTTATTTTTATTACATC [XGTACX_site3963],6.15
4,TATACATATGTATGCACACATACATACCCATATAAT [CACACA_site5842],9.42
5,TATTTAAAATATTAAATTTGTAAAGTTCGAGGGAAG [GTGCAC_negctrl_site337],6.38
6,TTTTCTCAATTTTGGTGTACTTTTTTCTTAACACAT [XGTACX_site8918],6.89
7,AAAAGAAATGACAAATTGGATAGATAATAGGGGGTA [GTGCAC_negctrl_site262],6.61
8,AATTTTGATATATATTGTACGCATTTTTAAATGCCA [XGTACX_site7694],6.58
9,AATATATAGGAAAAAGTGCAATAAATGAACAAAATA,8.44
10,TTTAATAAAATTCTAGTGCAAAAAGGAAAAAACAAA [GTGCAC_site9642],10
11,AAAAAAAAAAAAAATACACACATATATAAATAAATA [CACACA_site6459],6.6
12,GAAGTTTTTTAAAGATGTACTTTTTAAAAATAATGT [XGTACX_site1975],6.57
13,TTCTTAATTTAAAATTGTACTTAAGTAATACTTATG [XGTACX_site3928],6.48
14,TTATTTACTTATTGCACACATATAAAATATATTTAT [CACACA_site3101],10.7
15,GGAATAGTGATATATACACACAAATACATATTTATA [CACACA_site6183],6.79
16,AATTAATAAGAAAGGTGTACAGAAAAAAAAAAATAT [XGTACX_site2106],7.04
17,TATTTTTATCAATTCACACATAAATATATTTATATG [CACACA_site5547],6.57
18,CACAGTGATATAAAAACACACATGAATTAAAATTTC [CACACA_site4999],6.12
19,TCCCTTAATTTTGTGTGTACATATAATATATTTTTA [XGTACX_site2789],6.76
20,GTTAATTATTAAATTTGTACTCATATATATTATATA [XGTACX_site6862],6.6
21,CATACATACAGACACACACACATATTTATATTTATA [CACACA_site6172],7.11
22,ATTCATAAATATATTTGTACATATTATATATAAATA [XGTACX_site1907],6.57
23,ATAATAAAACTCAAAGTGCATTAGAATAATTGTAAA,8.11

row,Sequence,gcPBM binding intensity (ln)
1,AAGAACTCATTAATAATGTAATATTTTATAATTTAG [CACACA_negctrl_site321],5.97
2,TTTTTATAATAAAAAAATATAACTATATTAAGCCAC [CACACA_negctrl_site555],6.59
3,GATATTATTGCATATTTACACACGTACTAATTTAAA [CACACA_site8231],7.82
4,TACAATTGTAAAGGCGCACACATATATATATATATA [CACACA_site1392],9.36
5,AGCACCCACCAACACACACACACACCCACCCACCCA [CACACA_site8011],6.61
6,TAATATATAACGTGCACACACACATTTACGTATGAA [CACACA_site1832],9.89
7,ACAATAAATATGTGGTTGCACTTATAATATATTTAT,7.26
8,TATACATATTTCTATTGTACATAAACTAAATCTTCA [XGTACX_site28],5.94
9,TATATATTTATTAAATGTACATAACAAAAATGGTAT [XGTACX_site3577],7.05
10,ATTTATATATAATTTTGTACGAAAAAAATAAGGTAT [XGTACX_site3578],7.08
11,TGCATACATAAATGTATATATTAATATATATCATAT [GTGCAC_negctrl_site252],6.32
12,AAATAAAGTAAAATATGTACATAAATTAAAACACAT [XGTACX_site8539],7.19
13,TTAAATGAAAAAATATGTACGTATAATAAGAAATAT [XGTACX_site6619],6.97
14,TTTTTTCTTAGTTATACATGCAAAATAAATAAATAA [TGCATGCA_site410],6.53
15,TATTTTTTCTTAAACACACACATATATATATAGAAT [CACACA_site2836],6.85
16,GTATGAGTCGTAGAGTGTACTCTGGAGAAAACTACA [XGTACX_site4942],6.25
17,AATACATAATAACATGTACACACATTCTTCTATAAA [CACACA_site9344],6.57
18,TATACGAAATTGTGCACACATATATTTATGTATGTA [CACACA_site1509],11
19,AAAAAAAACGAACACACACACATACAAAATCTATAT [CACACA_site6795],6.78
20,TTAAAAGAATATAATGCACACATTATTTTATTTTAT [CACACA_site3772],10.4
21,TACCCACGTATATATATACACACTAATATACACCCA [CACACA_site9381],7.22
22,ATATAAATACGGTGTGCACACACATAATATATATAT [CACACA_site2271],11.1
